# According to the supplement of paper PMC6089552:
# The campaign covered roughly 3,200 compounds. About 300 (9.4%) showed activity. This is a selection; strong and weak results do not stand in their true shares.
# Test system: A673/TR/shEF
# Test: cell viability (LOESS-normalised, relative to median of negative controls) (log2 ratio); higher = more viable cells (less compound effect), active = hit call of the paper (over 3 MAD below the median)
# Details: treatment time: 72 h
# Method in brief: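 A673/TR/shEF Ewing sarcoma cells (1,500 per well, 384-well plates) were grown with or without doxycycline to induce EWS-FLI1 shRNA knockdown, starting 24 h before compounds. Library compounds at two or more concentrations, with DMSO controls, were added for three days. Cell viability was read by CellTiter-Glo luminescence on an Envision reader, then LOESS-corrected per plate, divided by the median of negative controls and log2-transformed. Hits were wells at least three median absolute deviations from the median of all screened wells.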
# [1] = 0.103 µM, library screen: screen3, EWS-FLI1 expression: high (no doxycycline)
# [2] = 0.103 µM, library screen: screen3, EWS-FLI1 expression: low (doxycycline-induced shRNA knockdown)
# [3] = 0.25 µM, library screen: screen1, EWS-FLI1 expression: high (no doxycycline)
# [4] = 0.25 µM, library screen: screen1, EWS-FLI1 expression: low (doxycycline-induced shRNA knockdown)
# [5] = 0.25 µM, library screen: screen2, EWS-FLI1 expression: high (no doxycycline)
# [6] = 0.25 µM, library screen: screen2, EWS-FLI1 expression: low (doxycycline-induced shRNA knockdown)
# [7] = 0.308 µM, library screen: screen3, EWS-FLI1 expression: high (no doxycycline)
# [8] = 0.308 µM, library screen: screen3, EWS-FLI1 expression: low (doxycycline-induced shRNA knockdown)
# [9] = 0.926 µM, library screen: screen3, EWS-FLI1 expression: high (no doxycycline)
# [10] = 0.926 µM, library screen: screen3, EWS-FLI1 expression: low (doxycycline-induced shRNA knockdown)
# [11] = 2.5 µM, library screen: screen1, EWS-FLI1 expression: high (no doxycycline)
# [12] = 2.5 µM, library screen: screen1, EWS-FLI1 expression: low (doxycycline-induced shRNA knockdown)
# [13] = 2.5 µM, library screen: screen2, EWS-FLI1 expression: high (no doxycycline)
# [14] = 2.5 µM, library screen: screen2, EWS-FLI1 expression: low (doxycycline-induced shRNA knockdown)
# [15] = 2.8 µM, library screen: screen3, EWS-FLI1 expression: high (no doxycycline)
# [16] = 2.8 µM, library screen: screen3, EWS-FLI1 expression: low (doxycycline-induced shRNA knockdown)
# [17] = 8.3 µM, library screen: screen3, EWS-FLI1 expression: high (no doxycycline)
# [18] = 8.3 µM, library screen: screen3, EWS-FLI1 expression: low (doxycycline-induced shRNA knockdown)
# [19] = 25 µM, library screen: screen3, EWS-FLI1 expression: high (no doxycycline)
# [20] = 25 µM, library screen: screen3, EWS-FLI1 expression: low (doxycycline-induced shRNA knockdown)
compound,measurement,setting,value
COc1ccc2c(c1)c(CC(=O)O)c(C)n2C(=O)c1ccc(Cl)cc1,cell viability (log2),[1],inactive: 0.0635
same,cell viability (log2),[2],inactive: 0.0929
same,cell viability (log2),[3],inactive: 0.0764
same,cell viability (log2),[4],inactive: 0.0215
same,cell viability (log2),[5],inactive: 0.146
same,cell viability (log2),[6],inactive: 0.151
same,cell viability (log2),[7],inactive: 0.173
same,cell viability (log2),[8],inactive: 0.108
same,cell viability (log2),[9],inactive: 0.137
same,cell viability (log2),[10],inactive: 0.0521
same,cell viability (log2),[11],inactive: 0.151
same,cell viability (log2),[12],inactive: 0.0769
same,cell viability (log2),[13],inactive: 0.181
same,cell viability (log2),[14],inactive: 0.129
same,cell viability (log2),[15],inactive: 0.0767
same,cell viability (log2),[16],inactive: 0.0496
same,cell viability (log2),[17],inactive: 0.0711
same,cell viability (log2),[18],inactive: 0.105
same,cell viability (log2),[19],inactive: 0.189
same,cell viability (log2),[20],inactive: 0.138
Nc1nc2ccc(OC(F)(F)F)cc2s1,cell viability (log2),[1],inactive: 0.0928
same,cell viability (log2),[2],inactive: 0.042
same,cell viability (log2),[5],inactive: 0.203
same,cell viability (log2),[6],inactive: 0.136
same,cell viability (log2),[7],inactive: 0.0938
same,cell viability (log2),[8],inactive: 0.128
same,cell viability (log2),[9],inactive: 0.0938
same,cell viability (log2),[10],inactive: 0.0398
same,cell viability (log2),[13],inactive: 0.181
same,cell viability (log2),[14],inactive: 0.143
same,cell viability (log2),[15],inactive: 0.053
same,cell viability (log2),[16],inactive: 0.0407
same,cell viability (log2),[17],inactive: 0.0456
same,cell viability (log2),[18],inactive: 0.0295
same,cell viability (log2),[19],inactive: 0.0947
same,cell viability (log2),[20],inactive: 0.0465
Oc1cc(O)c2c(c1)O[C@H](c1ccc(O)c(O)c1)[C@H](O)C2,cell viability (log2),[3],inactive: 0.0624
same,cell viability (log2),[4],inactive: 0.0382
same,cell viability (log2),[11],inactive: 0.061
same,cell viability (log2),[12],inactive: 0.0218
C(=C\c1ccccc1)/CN1CCN(C(c2ccccc2)c2ccccc2)CC1,cell viability (log2),[5],inactive: 0.0863
same,cell viability (log2),[6],inactive: 0.048
same,cell viability (log2),[13],inactive: 0.146
same,cell viability (log2),[14],inactive: 0.101
Cn1c(=O)[nH]c(=O)c2[nH]cnc21,cell viability (log2),[3],inactive: 0.136
same,cell viability (log2),[4],inactive: -0.0262
same,cell viability (log2),[11],inactive: 0.111
same,cell viability (log2),[12],inactive: 0.0112
O=C(C1CCCCC1)N1CC(=O)N2CCc3ccccc3C2C1 (configuration not stated),cell viability (log2),[3],inactive: 0.0937
same,cell viability (log2),[4],inactive: 0.0968
same,cell viability (log2),[5],inactive: 0.175
same,cell viability (log2),[6],inactive: 0.0597
same,cell viability (log2),[11],inactive: 0.113
same,cell viability (log2),[12],inactive: 0.159
same,cell viability (log2),[13],inactive: 0.105
same,cell viability (log2),[14],inactive: 0.0556
COc1ccc2c(c1OC)C(=O)O[C@@H]2[C@H]1c2c(cc3c(c2OC)OCO3)CCN1C,cell viability (log2),[3],inactive: -0.0184
same,cell viability (log2),[4],inactive: 0.141
same,cell viability (log2),[5],inactive: 0.0677
same,cell viability (log2),[6],inactive: 0.143
same,cell viability (log2),[11],inactive: 0.089
same,cell viability (log2),[12],inactive: 0.145
same,cell viability (log2),[13],inactive: 0.125
same,cell viability (log2),[14],inactive: 0.0492
COc1cc(CN2CCN(Cc3cccc(Cl)c3)CC2)c([N+](=O)[O-])cc1OC,cell viability (log2),[3],inactive: 0.103
same,cell viability (log2),[4],inactive: 0.0472
same,cell viability (log2),[11],inactive: 0.18
same,cell viability (log2),[12],inactive: 0.111
CC(C)C[C@H](NC(=O)[C@H](O)[C@H](N)Cc1ccccc1)C(=O)O,cell viability (log2),[5],inactive: 0.14
same,cell viability (log2),[6],inactive: 0.0402
same,cell viability (log2),[13],inactive: 0.0931
same,cell viability (log2),[14],inactive: 0.0118
CN(C)CC(=O)Nc1ccc2[nH]c(=O)c3ccccc3c2c1,cell viability (log2),[5],inactive: 0.195
same,cell viability (log2),[6],inactive: 0.036
same,cell viability (log2),[13],inactive: 0.0668
same,cell viability (log2),[14],inactive: 0.0496
CC[N+](CC)(CC)CCOc1ccc(/C=C/c2ccccc2)cc1,cell viability (log2),[5],inactive: 0.171
same,cell viability (log2),[6],inactive: 0.105
same,cell viability (log2),[13],inactive: 0.131
same,cell viability (log2),[14],inactive: 0.0953
Cc1c(NC(=O)Nc2ccc3ccccc3c2)c(=O)n(-c2ccccc2)n1C,cell viability (log2),[3],inactive: 0.0897
same,cell viability (log2),[4],inactive: 0.113
same,cell viability (log2),[11],inactive: 0.056
same,cell viability (log2),[12],inactive: 0.16
CC(=O)O[C@H]1CC[C@@]2(C)C(=CC[C@@H]3[C@@H]2CC[C@]2(C)C(c4cccnc4)=CC[C@@H]32)C1,cell viability (log2),[1],inactive: 0.019
same,cell viability (log2),[2],inactive: 0.0367
same,cell viability (log2),[7],inactive: -0.015
same,cell viability (log2),[8],inactive: 0.0394
same,cell viability (log2),[9],inactive: 0.0136
same,cell viability (log2),[10],inactive: 0.00409
same,cell viability (log2),[15],inactive: 0.0331
same,cell viability (log2),[16],inactive: 0.0286
same,cell viability (log2),[17],inactive: 0.0532
same,cell viability (log2),[18],inactive: 0.0629
same,cell viability (log2),[19],inactive: -0.0109
same,cell viability (log2),[20],inactive: 0.0721
C=C1C(CCl)(CCl)C2(Cl)C(Cl)C(Cl)C1(Cl)C2(Cl)Cl (configuration not stated),cell viability (log2),[3],inactive: 0.0656
same,cell viability (log2),[4],inactive: 0.021
same,cell viability (log2),[11],inactive: 0.0692
same,cell viability (log2),[12],inactive: 0.132
CN(C)C(=O)C(CCN1CCC(O)(c2ccc(Cl)cc2)CC1)(c1ccccc1)c1ccccc1,cell viability (log2),[1],inactive: 0.00244
same,cell viability (log2),[2],inactive: 0.0453
same,cell viability (log2),[3],0.439
same,cell viability (log2),[4],inactive: 0.13
same,cell viability (log2),[5],inactive: 0.173
same,cell viability (log2),[6],inactive: 0.124
same,cell viability (log2),[7],inactive: 0.0107
same,cell viability (log2),[8],inactive: 0.129
same,cell viability (log2),[9],inactive: 0.0214
same,cell viability (log2),[10],inactive: 0.106
same,cell viability (log2),[11],inactive: 0.201
same,cell viability (log2),[12],inactive: -0.00656
same,cell viability (log2),[13],inactive: 0.157
same,cell viability (log2),[14],inactive: 0.0931
same,cell viability (log2),[15],inactive: 0.0795
same,cell viability (log2),[16],inactive: 0.0725
same,cell viability (log2),[17],inactive: 0.0781
same,cell viability (log2),[18],inactive: 0.0661
same,cell viability (log2),[19],inactive: 0.0382
same,cell viability (log2),[20],inactive: 0.0763
O=C(O)C1CCCNC1 (configuration not stated),cell viability (log2),[3],inactive: 0.0566
same,cell viability (log2),[4],inactive: 0.0758
same,cell viability (log2),[5],inactive: -0.0538
same,cell viability (log2),[6],inactive: 0.129
same,cell viability (log2),[11],inactive: 0.131
same,cell viability (log2),[12],inactive: 0.067
same,cell viability (log2),[13],inactive: 0.203
same,cell viability (log2),[14],inactive: 0.169
NC(N)=NC(N)=Nc1cccc(Cl)c1,cell viability (log2),[5],inactive: 0.145
same,cell viability (log2),[6],inactive: 0.0324
same,cell viability (log2),[13],inactive: 0.0567
same,cell viability (log2),[14],inactive: 0.0608
